Laboratory results: PubChem BioAssay AID686978 (National Center for Advancing Translational Sciences (NCATS), 2013)
“And” between values parts separate entries of the source, which are not always exact repeats. Equal entries are not always repeated. Among all 420,000 compounds or so, about 64,000 (15%) were called active. The shares of active, inactive and inconclusive entries below differ from those in the screen. The call rests on the fitted dose curve; in most records, active means well fitted inhibition curve with a large enough effect; inconclusive means small, poorly fitted or top-dose-only effect; inactive means flat fitted curve, though single readings scatter. Potencies of inconclusive entries are left out as doubtful fits.

assay: qHTS for Inhibitors of human tyrosyl-DNA phosphodiesterase 1 (TDP1): qHTS in cells in absence of CPT; conditions: DT40 Tdp1-/- hTDP1 cells, no CPT, ATP luminescence, 48 h; activity change, negative = growth inhibition: at 46.2 µM (top of the series) unless noted; further: nearly all actives have a fitted effect of over 55% in size
Summary of the method: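 DT40 Tdp1-/-;hTDP1 cells, no CPT (DMSO vehicle only), 400 cells/well; compounds pin-transferred; ≥48 hr, 37 °C; CellTiter-Glo 30 min RT dark, luminescence read.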
On the % scale 0 is the no-effect control and ±100 the full control effect; potency means the concentration at half of the fitted maximal effect; tags describe the fitted curve by direction and shape.

| Compound | Potency | activity change, negative = growth inhibition |
| --- | --- | --- |
| Cc1ccc(-n2c(=O)c3c(cnn3C)n(Cc3ccc(Cl)cc3)c2=O)cc1 | inconclusive [inhibitor, partial curve] |  |
| O=C(Nc1ccccc1)C1CC(O)CN1S(=O)(=O)c1ccc([N+](=O)[O-])cc1 (centres undefined) | inactive |  |
| O=C(C=C(O)c1ccc(Cl)cc1)C(=O)NNC(=O)C(O)(c1ccccc1)c1ccccc1 | inconclusive [inhibitor, single point] |  |
| COc1ccc(OC)c(Nc2nc(N(C)c3ccccc3)nc(N)c2[N+](=O)[O-])c1 | inconclusive [inhibitor, single point] |  |
| COc1ccc(OCC(=O)Nc2ccc3c(c2)nc(CCN2CCN(c4ccccn4)CC2)n3C)cc1 | inconclusive [inhibitor, single point] |  |
| C=CCN1C(=O)/C(=C\c2ccc(Oc3nc(N4CCOCC4)nc(N4CCOCC4)n3)c(OC)c2)SC1=S | inconclusive [inhibitor, single point] |  |
| CCOc1ccc(/C=N/NC(=O)Cc2cccs2)cc1 | inactive |  |
| CCOc1ccc(/C=C2/SC(=O)NC2=S)cc1 | inconclusive [inhibitor, single point] |  |
| COC(=O)Cc1ccc2sc(-c3ccccc3)nc2c1 | inactive |  |
| CCOc1cc(C(=O)Nc2ccc(NC(=O)c3cc4ccccc4o3)c(OC)c2)cc(OCC)c1OCC | inconclusive [inhibitor, full curve, poor fit] |  |
| COc1ccc(OCC(=O)NNC(=O)C(=O)Nc2cc(OC)ccc2OC)cc1 | inactive |  |
| O=C(NCC(=O)N1CCOCC1)c1ccc(Cl)cc1 | inactive |  |
| Cc1nc2ccc(CN(C)c3ccc(C(=O)N[C@@H](CCC(=O)O)C(=O)O)s3)cc2c(=O)[nH]1 | active: 4.7 nM and active: 4.2 nM |  |
| COc1cc2c(cc1OC)-c1cc3ccc4c(c3c[n+]1CC2)OCO4 | inconclusive [inhibitor, single point] |  |
| COc1ccccc1CN1C[C@@H]2C[C@@H](c3ccc(C)cc3)N3CCC[C@@]23C1=O | inconclusive [inhibitor, single point] |  |
| CC/C(C)=N/Nc1nc(-c2cc3cccc(OC)c3oc2=O)cs1 | inconclusive [inhibitor, single point] |  |
| Cc1cc(C)cc(NC(=S)NCc2cccnc2)c1 |  | inconclusive: -31.9% [inhibitor] |
| O=C(N/C(=C/c1cccc([N+](=O)[O-])c1)C(=O)N1CCOCC1)c1ccc(Br)cc1 |  | inconclusive: -2.39% [inhibitor] |
| N#Cc1ccc(NC(=O)COC(=O)CCc2nc3ccccc3c(=O)[nH]2)cc1 | inactive |  |
